PubChem BioAssay AID463173 (ICCB-Longwood Screening Facility, Harvard Medical School, 2010)
The campaign covered roughly 52,000 compounds. About 1,700 (3.3%) were called active. Cut-off read from the data, not from the text of the source: active = survival mostly below about 52% (no sharp cut-off); inactive = mostly above about 56%. Some of the results follow.

System: Wild type
Assay: S. aureus survival, RN4220 and DeltatarO strains – OD600, teichoic acid synthesis inhibitors, primary screen (AID 463173)
Conditions: S. aureus RN4220 wild type/DeltatarO growth, OD600, 18 h, stronger effect = lower value, screened at 18.75 µg/mL (by protocol)

| Compound | survival |
| --- | --- |
| O=C(NC1CCCC1)C(c1ccc(N2CCOCC2)cc1)N(Cc1ccco1)C(=O)c1ccco1 (stereo not drawn) | inactive: 103% |
| CCCN(CCC)CCCNC(=O)c1cc2c(=O)[nH]c3ccccc3c2n1C | inactive: 77% |
| COc1cccc(-n2c(=O)c3sc4ccccc4c3n(CC(=O)Nc3ccccc3C)c2=O)c1 | inactive: 95% |
| COc1ccc(N2CCN(c3csc4ccccc4c3=O)CC2)cc1 | inactive: 71% |
| CCc1ccc(NC(=O)c2nn(-c3ccc(OC)cc3)c(=O)c3c2c2ccccc2n3C)cc1 | inactive: 92% |
| CCCCOc1ccc(Cn2c(=O)sc3ccccc32)cc1 | active: -4% |
| CCc1ccc(Oc2c(C(F)(F)F)oc3c(CN4CCCC(C)C4)c(O)ccc3c2=O)cc1 (stereo not drawn) | inactive: 72% |
| Cc1c(C(=O)Nc2ccc(F)cc2F)sc2nc3n(c(=O)c12)N=C(c1ccccc1)CS3 | inactive: 68% |
| CC(Sc1oc(-c2cccs2)nc1S(=O)(=O)c1ccccc1)c1ccccc1 (stereo not drawn) | inactive: 38% |
| Cn1nccc1C(=O)NCc1ccc2c(c1)CCN2C(=O)c1ccc(Cl)cc1 | inactive: 66% |
| O=C1c2ccccc2-c2onc3c(NCCO)cc(NC4CCCCC4)c1c23 | inactive: 77% |
| COc1ccc(C(CNC(=O)COc2cc(C)cc(C)c2)N2CCOCC2)cc1 (stereo not drawn) | inactive: 69% |
| CCOC(=O)c1ccccc1NC(=O)CCc1nc(-c2ccc(C)cc2)no1 | inactive: 27% |
| CC(CNC(=O)CCS(=O)(=O)c1cc2c(cc1Cl)NC(=O)CO2)c1ccccc1 (stereo not drawn) | inactive: 55% |
| Cc1ccc(NC(=O)CSc2nc(=O)cc(N)n2CCc2ccccc2)cc1 | inactive: 74% |
| CCc1ccccc1NC(=O)C1CCCN(c2cnccn2)C1 (stereo not drawn) | inactive: 92% |
| O=C(Nc1cccc(NC(=O)c2ccccc2Cl)c1)c1cccc(Br)c1 | inactive: 107% |
| COc1cccc(C(=O)c2sc(Nc3ccc(F)c(Cl)c3)nc2N)c1 | inactive: 65% |
| Cn1c(=O)c2sccc2n2c(CCC(=O)Nc3ccc(F)cc3)nnc12 | inactive: 67% |
| Cc1cc(C)cc(NC(=O)C(=O)NCC(c2cccnc2)N2CCc3ccccc32)c1 (stereo not drawn) | inactive: 76% |

| Compound | survival |
| --- | --- |
| CCC1CCCCN1CCCNC(=O)c1ccc2c(c1)sc1nc(-c3ccc(F)cc3)cn12 (stereo not drawn) | active: 6% |
| CCOc1ccc(OCC)c(S(=O)(=O)N2CCC(C)CC2)c1 | inactive: 102% |
| COc1ccc(OC)c(-c2noc(N3CCN(c4cc(Cl)ccc4C)CC3)n2)c1 | inactive: 134% |
| Cc1ccc(C)c(NC(=O)CSc2nnc(C)n3c2cc2occc23)c1 | inactive: 83% |
| COC(=O)c1ccc(Cl)cc1NC(=O)Nc1nnc(N(C)Cc2ccccc2)s1 | inactive: 95% |
| COc1ccc(C2c3c(-c4ccccc4O)n[nH]c3C(=O)N2CCc2ccccc2)cc1 (stereo not drawn) | inactive: 38% |
| COc1ccccc1NC(=O)CN1CCN(CC(=O)Nc2ccc(F)c(F)c2)CC1 | inactive: 134% |
| CCOC(=O)c1ccc(CN(Cc2ccc(Br)cc2)S(=O)(=O)c2cccc(C(F)(F)F)c2)cc1 | inactive: 72% |
| COc1ccc2c(c1)c(=O)c(C(=O)c1ccc(C)cc1)cn2Cc1ccccc1F | inactive: 88% |
| CCC(C(=O)OC)n1nnc2sc(-c3ccccc3)cc2c1=O (stereo not drawn) | inactive: 81% |
| O=C(COc1ccccc1Cl)Nc1ccccc1OCc1cc(=O)n2ccccc2n1 | inactive: 69% |
| Cc1ccc(N2C(=O)CS(=O)(=O)C23C(=O)N(Cc2ccccc2F)c2ccccc23)cc1Cl (stereo not drawn) | inactive: 83% |
| CCCCN(CC)CCNc1ncnc2onc(-c3ccc(Cl)cc3)c12 | inactive: 82% |
| CCOC(=O)N1CCN(CCC(=O)Nc2cccc(Cl)c2C)CC1 | inactive: 115% |
| O=C(CN1C(=O)C2CCCCN2c2ccc(C(=O)N3CCCC3)cc21)NCc1ccccc1F (stereo not drawn) | inactive: 73% |
| CN(c1ccccc1)C(CNS(=O)(=O)c1ccccc1)c1ccccc1 (stereo not drawn) | inactive: 89% |
| COC(=O)c1sccc1S(=O)(=O)N(CC(=O)NCc1ccc(F)cc1)c1ccc(C)c(C)c1 | inactive: 76% |
| Cc1cccc(NC(=O)NC2COc3ccccc3C2)c1C (stereo not drawn) | inactive: 73% |
| Cc1ccc(CN(Cc2ccco2)C(=O)c2cccc(C)c2)cc1 | inactive: 98% |
| CNS(=O)(=O)c1cn(CC(=O)Nc2cccc(C(F)(F)F)c2)cc1S(=O)(=O)NC | inactive: 94% |

| Compound | survival |
| --- | --- |
| COc1ccc(Cc2nnc(C(=O)NCCCN3CCN(c4ccccc4F)CC3)o2)cc1OC | inactive: 87% |
| CC(OC(=O)c1cc2sccc2n1C)C(=O)NCc1cccs1 (stereo not drawn) | inactive: 108% |
| CC(C)COc1ccc(Nc2ncnc3ccc(Br)cc23)cc1 | inactive: 79% |
| CNS(=O)(=O)c1cn(CC(=O)N2CCN(c3ccc(C)cc3C)CC2)cc1S(=O)(=O)NC | inactive: 59% |
| O=C(O)CCC(=O)N1N=C(c2ccccc2)CC1c1ccc2nccnc2c1 (stereo not drawn) | inactive: 99% |
| Cc1cc(S(=O)(=O)n2ccnc2C(C)C)cc([N+](=O)[O-])c1C | inactive: 67% |
| CCCNc1ccc(-c2nc(-c3ccco3)no2)cc1[N+](=O)[O-] | inactive: 86% |
| CCc1ccc(CNC(=O)C(CC)n2nc(C)c3c(C)n(-c4ccccc4)nc3c2=O)cc1 (stereo not drawn) | inactive: 124% |
| CCOC(=O)c1[nH]c2ccccc2c1NC(=O)c1ccccc1OC | inactive: 61% |
| CN1CCN(C(=O)c2ccccc2C(=O)O)CC1 | inactive: 115% |
| COc1ccc(CNc2nc(-c3ccco3)nn2C(=O)CC(C)C)cc1 | inactive: 111% |
| CCOC(=O)c1nc(Nc2ccc(Cl)cc2)c2c(C)noc2n1 | inactive: 74% |
| CC(=O)Nc1ccc(S(=O)(=O)N2CCN(Cc3ccccc3Cl)CC2)cc1 | inactive: 117% |
| Cc1ccc(CCNC(=O)c2ccc(CNS(=O)(=O)c3ccc(C)cc3)cc2)cc1 | inactive: 70% |
| Cc1ccc(Cl)cc1N1CCN(C(=O)c2cn(CC(C)C)c(=O)c3c2c2ccccc2n3C)CC1 | inactive: 87% |
| CCCN1CCCc2cc(CN)ccc21 | inactive: 115% |
| O=C(c1cccs1)N1CCN(c2ccc(Cl)cc2)CC1 | inactive: 108% |
| O=C(Nc1cc(C(F)(F)F)ccc1Cl)c1ccc2c(c1)CCN2S(=O)(=O)c1ccccc1 | inactive: 98% |
